Experimental data taken from the RNAGym collection of RNA variant scans (doi:10.1093/nar/gkz1192).
The source gives no read counts; variants with many changes may rest on few reads.

B1: CPEB3 Ribozyme (parent)
chain: UAACAGGGGGCCACAGCAGAAGCGUUCACGUCGCAGCCCCUGUCAGAUUCUGGUGAAUCUGCGAAUUCUGCUGUAUAUCUC

Variants of: B1
Assay: self-cleavage, relative activity (ratio to wild type); higher = more cleavage; in vitro, sequencing
In short: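 CPEB3 self-cleaving ribozyme mutant libraries were made by rounds of error-prone PCR, barcoded, and transcribed in vitro with T7 RNA polymerase for 5 hours at 37°C. Cleavage occurred during transcription and a 15 min DNase I step before EDTA stop. RNAs were reverse transcribed with template switching and Illumina-sequenced, with DNA sequencing mapping barcodes to variants. Relative activity is the variant's cleaved/total read fraction divided by wild type's (minimum 5 reads), averaged across three batches.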

Variant	self-cleavage
UAACAGGGGGCCACAGCAGAAGCGCUCACGUCGCAGCCCCCGUCAGAUUCUUGUGAAUCUGCGGAUUCUGCUGUAUAUCUC [U25C U41C G52U A64G]	0.13
UAACAGGGGGCCACAGCAGAAGCGCUCACGUCGCAGCCCCCGUCAGAUUCUGGUGAAUCUUAGGAUUCUGCUGUAUAUCUC [U25C U41C G61U C62A A64G]	0.17
UAACAGGGGGCCACAGCAGAAGCGCUCACGUCGCAGCCCCCGCCAGAUUCUGGUGAACCUGUGAAUUCUGCUAUAUAUCUC [U25C U41C U43C U58C C62U G73A]	0.02
UAACAGGGGGCCACAGCAGAAGCGCUCACGUCGCAGCCCCCGUCAGAUACUGGUGAAUCUGCGAAUUCUGCUGUAUAUCUC [U25C U41C U49A]	0.45
UAACAGGGGGCCACAGCAGAAGCGCUCACGUCGCAGCCCCCGUCAGAUUCAGGUGAAUCUGCGAAUUCUGCUGUAUAUCUC [U25C U41C U51A]	0.19
UAACAGGGGGCCACAGCAGAAGCGCUCACGUCGCAGCCCCCGUCAGAUUCAGGUGAAUCUGUGAAUUCUGCUGUAUAUCUC [U25C U41C U51A C62U]	0.1
UAACAGGGGGCCACAGCAGAAGCGCUCACGUCGCAGCCCCCGUCAGAUUCCGGUGAGUCUGCGAAUUCUGCUGUAUACCUC [U25C U41C U51C A57G U78C]	0.21
UAACAGGGGGCCACAGCAGAAGCGCUCACGUCGCAGCCCCCGUCAGAUUCCGGUGAAUCUGCAAAUUCUGCUGCAUAUCCC [U25C U41C U51C G63A U74C U80C]	0.11
UAACAGGGGGCCACAGCAGAAGCGCUCACGUCGCAGCCCCCGUCAGAUUCCGGUGAAUCUGCGAACUCUGCUGUAUAUCUC [U25C U41C U51C U66C]	0.09
UAACAGGGGGCCACAGCAGAAGCGCUCACGUCGCAGCCCCCGUCAGAUUCCGGUGAAUCUGCGAAUUCUGCUGUAUACCUC [U25C U41C U51C U78C]	0.12
UAACAGGGGGCCACAGCAGAAGCGCUCACGUCGCAGCCCCCGUCAGAUUCUGGUGAAACUGCGAAUUCUGCUGUAUAUCUC [U25C U41C U58A]	0.1
UAACAGGGGGCCACAGCAGAAGCGCUCACGUCGCAGCCCCCGUCAGAUUCUGGUGAAACUGCGAAUUCUGCUGUAUGUCAC [U25C U41C U58A A77G U80A]	0.1
UAACAGGGGGCCACAGCAGAAGCGCUCACGUCGCAGCCCCCGUCAGAUUCUGGUGAAACUGCGAAUUCUGCUGUAUAUCCC [U25C U41C U58A U80C]	0.26
UAACAGGGGGCCACAGCAGAAGCGCUCACGUCGCAGCCCCCGUCAGAUUCUGGUGAAUCCGCGAAUGCCGCCGUAUAUCUC [U25C U41C U60C U67G U69C U72C]	0.39
UAACAGGGGGCCACAGCAGAAGCGCUCACGUCGCAGCCCCCGUCAGAUUCUGGUGAAUCUGCGAACUCUGCUGUAUAUCUC [U25C U41C U66C]	0.18
UAACAGGGGGCCACAGCAGAAGCGCUCACGUCGCAGCCCCCGUCAGAUUCUGGUGAAUCUGCGAAUUCUGCCGUAUAUCUC [U25C U41C U72C]	0.46
UAACAGGGGGCCACAGCAGAAGCGCUCACGUCGCAGCCCCCGUCAGAUUCUGGUGAAUCUGCGAAUUCUGCUGUACAUCUC [U25C U41C U76C]	0.21

Variant	self-cleavage
UAACAGGGGGCCACAGCAGAAGCGCUCACGUCGCAGCCCCGGUCAGAUUCUGGUGAAUCUGCGAAUUCUGCUGUGUAUCUC [U25C U41G A75G]	0.11
UAACAGGGGGCCACAGCAGAAGCGCUCACGUCGCAGCCCCGGUCAGAUUCUGGUGAAUCUGAGAUUUCUGCUGUAUAGCUC [U25C U41G C62A A65U U78G]	0.12
UAACAGGGGGCCACAGCAGAAGCGCUCACGUCGCAGCCCCGGUCAGAUUCUGGAGAAUCUGCGAAUUCUGCUGUAUAUCUC [U25C U41G U54A]	0.21
UAACAGGGGGCCACAGCAGAAGCGCUCACGUCGCAGCCCCGGUCAGAUUCUGGUGAAUCUGCGAAUUCUGCCGUAUAUCAC [U25C U41G U72C U80A]	0.16
UAACAGGGGGCCACAGCAGAAGCGCUCACGUCGCAGCCCCUGACAGAUUCUGGUGUAUCUGCGAAUUCUGCUGUAUGUCUC [U25C U43A A56U A77G]	0.2
UAACAGGGGGCCACAGCAGAAGCGCUCACGUCGCAGCCCCUGACAGAUUCUGGUGAUUCUGCGAGUUCUGCUGUAUAUCUC [U25C U43A A57U A65G]	0.09
UAACAGGGGGCCACAGCAGAAGCGCUCACGUCGCAGCCCCUGACAGAUUUUGGUGAAUCUACGAGCUCUGCUGUAUAUCUC [U25C U43A C50U G61A A65G U66C]	0.11
UAACAGGGGGCCACAGCAGAAGCGCUCACGUCGCAGCCCCUGACAGAUUCUUGUGAAUCUGCGAAUUCUGCUGUAUAUCUC [U25C U43A G52U]	0.35
UAACAGGGGGCCACAGCAGAAGCGCUCACGUCGCAGCCCCUGACAGAUUCUGGUGAAUCUACGAAUUCUGCCGUAUACCUC [U25C U43A G61A U72C U78C]	0.14
UAACAGGGGGCCACAGCAGAAGCGCUCACGUCGCAGCCCCUGACAGAUUCUGGUGAAUCUGCGAAUCCUGCCGUAUAUCUC [U25C U43A U67C U72C]	0.36
UAACAGGGGGCCACAGCAGAAGCGCUCACGUCGCAGCCCCUGCCGGAUUCUGGUGAAUCUGCGAACUCUGCAGUAUAUCUC [U25C U43C A45G U66C U72A]	0.25
UAACAGGGGGCCACAGCAGAAGCGCUCACGUCGCAGCCCCUGCCGGAUUCUGGUGAAUCUGCGAAUUCUGCUGCAUAUCUC [U25C U43C A45G U74C]	0.2
UAACAGGGGGCCACAGCAGAAGCGCUCACGUCGCAGCCCCUGCCAGAUUCUGGUGUAUCUGCGAAUUCUGCUGUAUAUCUC [U25C U43C A56U]	0.15
UAACAGGGGGCCACAGCAGAAGCGCUCACGUCGCAGCCCCUGCCAGAUUCUGGUGAGUCUGCGAAUUCUGCUGUAAAUCUC [U25C U43C A57G U76A]	0.09
UAACAGGGGGCCACAGCAGAAGCGCUCACGUCGCAGCCCCUGCCAGAUUCUGGUGAAUCUGCGGAUUCUGCUGUAUAUCUC [U25C U43C A64G]	0.29
UAACAGGGGGCCACAGCAGAAGCGCUCACGUCGCAGCCCCUGCCAGAUUCUGGUGAAUCUGCGAGUUCUGCUGUAUAUCUC [U25C U43C A65G]	0.42
UAACAGGGGGCCACAGCAGAAGCGCUCACGUCGCAGCCCCUGCCAGAUUUUGGUGAAUCUGCGAAUUCUGCUGUAUAUCUC [U25C U43C C50U]	0.16
